# The other results are listed elsewhere or left out.
# B1: Gal 1 (Canis lupus) (protein)
# chain: MACGLVASNLSLKPGQCLRVQCEVVPEAKSFVLNLGKDGDNLCLHFNPRFEAHGDVNTIVCNSKDGGAWGEELRESAFPFQPGTVTEVCISFDQADLTIKLPDGYTFKFPNRLNLEAISYLAADGDMKIKCLAFD
# How the values were obtained:
# Experiment in all cases: glycan array binding signal (z-score within array); higher = stronger binding
# Conditions in all cases: glycan notation: IUPAC condensed, linker removed
# [1] = target: Fuc(a1-2)Gal
# In short: (§1)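 Glycan array data were curated from 3228 arrays in the Consortium for Functional Glycomics database and kept only where the protein sequence was available. Glycan names were converted to IUPAC-condensed notation, and columns mapping to the same glycan were averaged. The binding signal is a within-array Z-score, averaged across arrays of the same protein sequence at different concentrations or buffers and across linkers. Negative Z-scores can be read as non-binding.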
# [2] = target: Fuc(a1-2)Gal(b1-3)GalNAc
# In short: as §1
# [3] = target: Fuc(a1-2)Gal(b1-3)GalNAc(a1-3)[Fuc(a1-2)]Gal(b1-4)Glc
# In short: as §1
# [4] = target: Fuc(a1-2)Gal(b1-3)GalNAc(a1-3)[Fuc(a1-2)]Gal(b1-4)GlcNAc
# In short: as §1
# [5] = target: Fuc(a1-2)Gal(b1-3)GalNAc(b1-3)Gal
# In short: as §1
# [6] = target: Fuc(a1-2)Gal(b1-3)GalNAc(b1-3)Gal(a1-4)Gal(b1-4)Glc
# In short: as §1
# [7] = target: Fuc(a1-2)Gal(b1-3)GalNAc(b1-4)[Neu5Ac(a2-3)]Gal(b1-4)Glc
# In short: as §1
# [8] = target: Fuc(a1-2)Gal(b1-3)GlcNAc
# In short: as §1
# [9] = target: Fuc(a1-2)Gal(b1-3)GlcNAc(b1-2)Man(a1-3)[Fuc(a1-2)Gal(b1-3)GlcNAc(b1-2)Man(a1-6)]Man(b1-4)GlcNAc(b1-4)GlcNAc
# In short: as §1
# [10] = target: Fuc(a1-2)Gal(b1-3)GlcNAc(b1-3)Gal(b1-4)Glc
# In short: as §1
# [11] = target: Fuc(a1-2)Gal(b1-3)GlcNAc(b1-3)[Fuc(a1-3)[Gal(b1-4)]GlcNAc(b1-6)]Gal(b1-4)Glc
# In short: as §1
# [12] = target: Fuc(a1-2)Gal(b1-3)[Fuc(a1-4)]GlcNAc
# In short: as §1
# [13] = target: Fuc(a1-2)Gal(b1-3)[Fuc(a1-4)]GlcNAc(b1-2)Man(a1-3)[Fuc(a1-2)Gal(b1-3)[Fuc(a1-4)]GlcNAc(b1-2)Man(a1-6)]Man(b1-4)GlcNAc(b1-4)GlcNAc
# In short: as §1
# [14] = target: Fuc(a1-2)Gal(b1-3)[Fuc(a1-4)]GlcNAc(b1-3)[Fuc(a1-3)[Gal(b1-4)]GlcNAc(b1-6)]Gal(b1-4)Glc
# In short: as §1
# [15] = target: Fuc(a1-2)Gal(b1-3)[Fuc(a1-4)]GlcNAc(b1-3)[Gal(b1-4)GlcNAc(b1-6)]Gal(b1-4)Glc
# In short: as §1
# [16] = target: Fuc(a1-2)Gal(b1-4)Glc
# In short: as §1
# [17] = target: Fuc(a1-2)Gal(b1-4)Glc6S
# In short: as §1
# [18] = target: Fuc(a1-2)Gal(b1-4)GlcNAc
# In short: as §1
# [19] = target: Fuc(a1-2)Gal(b1-4)GlcNAc(b1-2)Man(a1-3)[Fuc(a1-2)Gal(b1-4)GlcNAc(b1-2)Man(a1-6)]Man(b1-4)GlcNAc(b1-4)GlcNAc
# In short: as §1
# [20] = target: Fuc(a1-2)Gal(b1-4)GlcNAc(b1-3)Gal(b1-4)GlcNAc
# In short: as §1
# [21] = target: Fuc(a1-2)Gal(b1-4)GlcNAc(b1-3)Gal(b1-4)GlcNAc(b1-3)Gal(b1-4)GlcNAc
# In short: as §1
# [22] = target: Fuc(a1-2)Gal(b1-4)GlcNAc(b1-3)GalNAc
# In short: as §1
# [23] = target: Fuc(a1-2)Gal(b1-4)GlcNAc6S
# In short: as §1
# [24] = target: Fuc(a1-2)Gal(b1-4)[Fuc(a1-3)]GlcNAc
# In short: as §1
# [25] = target: Fuc(a1-2)Gal(b1-4)[Fuc(a1-3)]GlcNAc(b1-2)Man(a1-3)[Fuc(a1-2)Gal(b1-4)[Fuc(a1-3)]GlcNAc(b1-2)Man(a1-6)]Man(b1-4)GlcNAc(b1-4)GlcNAc
# In short: as §1
# [26] = target: Fuc(a1-2)Gal(b1-4)[Fuc(a1-3)]GlcNAc(b1-3)Gal(b1-4)[Fuc(a1-3)]GlcNAc
# In short: as §1
# [27] = target: Fuc(a1-2)Gal(b1-4)[Fuc(a1-3)]GlcNAc(b1-3)Gal(b1-4)[Fuc(a1-3)]GlcNAc(b1-3)Gal(b1-4)[Fuc(a1-3)]GlcNAc
# In short: as §1
# [28] = target: Fuc(a1-2)Gal6S(b1-4)Glc
# In short: as §1
# [29] = target: Fuc(a1-2)Gal6S(b1-4)Glc6S
# In short: as §1
# [30] = target: Fuc(a1-2)Gal6S(b1-4)GlcNAc
# In short: as §1
binder,measurement,setting,value
B1,glycan array binding signal (z-score),[1],-0.336
same,glycan array binding signal (z-score),[2],-0.289
same,glycan array binding signal (z-score),[3],-0.341
same,glycan array binding signal (z-score),[4],-0.334
same,glycan array binding signal (z-score),[5],-0.33
same,glycan array binding signal (z-score),[6],-0.321
same,glycan array binding signal (z-score),[7],-0.331
same,glycan array binding signal (z-score),[8],-0.117
same,glycan array binding signal (z-score),[9],-0.104
same,glycan array binding signal (z-score),[10],0.211
same,glycan array binding signal (z-score),[11],0.066
same,glycan array binding signal (z-score),[12],-0.306
same,glycan array binding signal (z-score),[13],-0.319
same,glycan array binding signal (z-score),[14],-0.095
same,glycan array binding signal (z-score),[15],0.48
same,glycan array binding signal (z-score),[16],-0.338
same,glycan array binding signal (z-score),[17],-0.119
same,glycan array binding signal (z-score),[18],-0.18
same,glycan array binding signal (z-score),[19],0.929
same,glycan array binding signal (z-score),[20],0.136
same,glycan array binding signal (z-score),[21],0.432
same,glycan array binding signal (z-score),[22],-0.311
same,glycan array binding signal (z-score),[23],-0.067
same,glycan array binding signal (z-score),[24],-0.307
same,glycan array binding signal (z-score),[25],-0.316
same,glycan array binding signal (z-score),[26],-0.335
same,glycan array binding signal (z-score),[27],-0.325
same,glycan array binding signal (z-score),[28],-0.234
same,glycan array binding signal (z-score),[29],-0.312
same,glycan array binding signal (z-score),[30],-0.254

# Reference: the supplement of paper PMC8728848
